Molecular target: the molecule itself
Experiment: SDS-PAGE under non-reducing conditions; purified AnxA2 derivatives kept under oxidizing (non-reducing) conditions (WT: oxidation state after 1 and 5 weeks); disulfide-linked dimer against monomer

B1: annexin A2 (AnxA2), monomeric wild-type (WT), recombinant, carrying A66E (natural protein)
chain: not shown
modifications: starting methionine removed; the serine that follows it is N-terminally acetylated; under oxidizing conditions a disulfide through Cys-9 to a second AnxA2
notes: annexin A2, human; authentic, non-tagged protein; starting methionine removed and following serine acetylated; measured monoisotopic mass 38548.7867 Da; A66E was introduced for antibody detection; The mass fits the whole acetylated protein without the starting methionine; also called WT AnxA2; non-alkylated AnxA2; source: E. coli DH5α, purified (diethylaminoethyl- and carboxymethyl-cellulose ion …)
B1 was tested, and the “stoichiometry N” value was 2.
